According to ChEMBL document CHEMBL1201862, “PubChem BioAssay data set” (2004):
Structures can show the parent of a compound that is named as a salt.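 Values below derive from 48-hour exposures of cells grown in 96-well plates, with endpoints linearly interpolated between the two concentrations bracketing the appropriate inhibition level. At the GI50, growth is halved.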 Calls of active or inactive are those of the source. Cut-off read from the data, not from the text of the source: active = GI50 up to about 1.1 µM and inactive = higher. Bridge positions count the residues as written; N and C are the ends. Square brackets hold non-standard residues; d marks the D form. Peptide text beside a SMILES is read from it. * marks the point of attachment. ξ: configuration not given here. X21 = O=C(/C=C/C=C/C=C/C=C/C=C/C(=O)*)NC1=C(O)CCC1=O; Pro(4R-Me) = C[C@H]1CN[C@H](C(=O)O)C1; NMeA = CN[C@@H](C)C(=O)O; ξF = NC(Cc1ccccc1)C(=O)O; ξA = CC(N)C(=O)O

What follows are molecules tested on NCI-H322M (assay: DTP human tumour cell line panel, 48 h).

Structure (SMILES) | GI50
CCCCCCCCCCCCCCCCNc1ccn(C2CC(OP(=O)(O)OCC3OC(n4cc(CC)c(=O)[nH]c4=O)CC3O)C(CO)O2)c(=O)n1 (stereo not given) | inactive: 45.2 µM
CCC(=O)NI1OC(=O)c2ccccc21 | inactive: > 100 µM
C/C(=N\NC(N)=O)c1sc(-c2nc(C)c(/C(C)=N/NC(N)=O)s2)nc1C | inactive: > 100 µM
CCOc1cnc(C(O)(c2ccccc2)c2ccccc2)o1 | inactive: > 100 µM
N#C/C=C\c1ccc(-c2cc(C(F)(F)F)cc(C(F)(F)F)c2)o1 | inactive: > 100 µM
CN(C)C(=S)/N=c1\ssc(=S)n1C | inactive: > 100 µM
BrC1=CN2C[n+]3cc(Br)c4ccccc4c3N=C2c2ccccc21 | inactive: 26.7 µM
Cc1ncc([N+](=O)[O-])n1CCNS(=O)(=O)CCCn1ncnc1[N+](=O)[O-] | inactive: > 100 µM
O=C1c2cc(Cl)ccc2N=C(NCCCl)C2CSCN12 (stereo not given) | inactive: > 100 µM
CCOc1ccc(NC(=O)C2=C(C)NC(C)=C(C(=O)Nc3ccc(OCC)cc3)C2c2ccc(O)c(OC)c2)cc1 | inactive: 59.4 µM
C/C=C1\CC(C(=O)OCC)CCCCCCCCCCC1=O (stereo not given) | inactive: > 100 µM
Cn1cnnc1Sc1c([N+](=O)[O-])ncn1C | inactive: > 100 µM
COC1C(OC(=O)c2ccc(C)[nH]2)C(O)C(Oc2ccc3c(O)c(NC(=O)c4ccc(O)c(CC=C(C)C)c4)c(=O)oc3c2Cl)OC1(C)C (stereo not given) | inactive: 20.3 µM
CC(C)C[C@H]1C(=O)N2CCC[C@H]2[C@]2(O)O[C@](NC(=O)[C@@H]3C=C4c5cccc6[nH]c(Br)c(c56)C[C@H]4N(C)C3)(C(C)C)C(=O)N12 [BROMOCRIPTINE MESYLATE] | inactive: > 100 µM
CCOc1ccc(N/C(=C(/C(Cl)=C(/Cl)NC(C)(C)C)[N+](=O)[O-])n2nnc3ccccc32)cc1 | inactive: > 100 µM
COC(=O)C1=CNC(C(=O)OC)=NN1 | inactive: > 100 µM
COc1cc2c(cc1OC)C1c3ccccc3C(C#N)(C2)N(C(=O)c2ccccc2)C1O (stereo not given) | inactive: > 100 µM
COc1ccc(CCN2CCc3c(C)c(C#N)c4nc5ccccc5n4c32)cc1OC | inactive: 45.7 µM
ClC(Cl)=C1C(=C(Cl)Cl)C(Cl)(Cl)C1(Cl)Cl | inactive: 12.2 µM
CC(C)(NO)/C(=N\O)c1ccccc1 | inactive: > 10 µM
O=c1[nH]c(C23CC4CC(CC(C4)C2)C3)cc2c1c(=O)oc1ccccc12 | inactive: 4.03 µM
Cc1ccc(C2=C(c3ccccc3)C(Br)(c3ccccc3)C(c3ccccc3)=C2c2ccc(C)cc2)cc1 | inactive: > 100 µM

Structure (SMILES) | GI50
O=C(CCCN1CCC2(CC1)CC(=O)N(N1CCCCCC1)C2=O)c1ccc(F)cc1 | inactive: > 100 µM
CC(=O)OCc1c2ccccc2c(C)c2c1cc(F)c1ccccc12 | inactive: 46.7 µM
Cn1c(=O)n(C2(C)C[Se]C2)c2ccccc21 | inactive: > 100 µM
O=C(N/N=C(\C1=Nc2ccc(Cl)cc2NC1O)C(O)/C=C/c1ccccc1)c1ccncc1 (stereo not given) | inactive: > 100 µM
COC(=O)C1C(=O)CC(C)(O)C(C(=O)OC)C1c1ccc(N(C)C)cc1 (stereo not given) | inactive: > 100 µM
O=c1oc2cccnc2n1CCN1CCN(c2ccc(Oc3ccccc3)cc2)CC1 | inactive: > 100 µM
COC1(OC)C[C@H](C)[C@@]23O[C@]24c2cc(O)c5c(c2N[C@H]3C#C/C=C\C#C[C@]14O)C(=O)c1ccccc1C5=O | active: 0.0168 µM
CCOC1NC(=O)Oc2ccccc21 (stereo not given) | inactive: > 100 µM
CC(C)(Cl)C(Br)CCC(C)(Cl)C(Br)CBr (stereo not given) | inactive: 40.6 µM
CCN(CC)CC(C(=O)Nc1c(C)cccc1C)/C(C)=N\NC(=O)c1ccncc1 (stereo not given) | inactive: > 100 µM
COc1ccc2[nH]c3c(C)c4cc[n+](COC(=O)c5ccccc5)cc4c(C)c3c2c1 | active: 0.274 µM
COc1cc2c(cc1OC)C(Cl)C(c1ccc(Cl)c(Cl)c1)=C2Cl (stereo not given) | inactive: 11.6 µM
S=C(Cc1ccc2c(c1)Sc1ccccc1O2)N1CCOCC1 | inactive: 53.7 µM
Cc1ccc(-c2n[nH]c(=O)[nH]2)cc1[N+](=O)[O-] | inactive: > 100 µM
C[N+]1(C)CCc2cc(O)c(O)cc2C1Cc1ccc(O)c(O)c1 (stereo not given) | inactive: > 100 µM
COC(=O)C1=C(O)c2cc(-c3ccccc3)c(-c3ccccc3)c(C#N)c2NC(=O)C1 | inactive: > 100 µM
CCOC(=O)c1nc[nH]c1/N=N/N(C)N | inactive: > 100 µM
CCOC(=O)C(Cc1ccc(O)cc1)Nc1nc(=O)c2c(=O)oc(Cl)cc2o1 (stereo not given) | inactive: 17.1 µM
COc1ccc2c(c1)CCN=C2Cc1cc(OC)c(OC)cc1CCCl | inactive: 85.3 µM
CC1NC(=O)[C@H](C)N(C)C(=O)[C@@H]2CCCN2C(=O)[C@@H](NC(=O)C(Cc2ccccc2)NC(=O)/C=C/C=C/C=C/C=C/C=C/C(=O)NC2=C(O)CCC2=O)COC(=O)[C@@H]2C[C@@H](C)CN2C1=O (stereo partly drawn) (X21-[ξF]SP[NMeA][ξA][Pro(4R-Me)]; ester 2-C) | inactive: > 100 µM
Cn1c(=O)nc2n(CCO)ccnc-2c1=O | inactive: > 100 µM
COc1ccc(-c2cc(Cc3cccs3)c(=O)[nH]n2)cc1 | inactive: > 100 µM

Structure (SMILES) | GI50
CCOC(=O)c1csc(-c2nc(CCNC(=O)c3ccccc3)sc2Cl)n1 | inactive: > 100 µM
Nc1nc(Cl)cc(NCCC2(CO)CCC2)n1 | inactive: > 100 µM
N#C/C(=C\c1cc(Cl)cc(Cl)c1)c1ccccn1 | inactive: 54.1 µM
Cc1ccc(O)c(C(c2cc(C)ccc2O)c2cc([N+](=O)[O-])ccc2O)c1 | inactive: 16.7 µM
Cc1ccnc2c1C(=O)C1=C(OC(C)(C)CC1O)C2=O (stereo not given) | inactive: 11.1 µM
Nc1ncnc2c1ncn2C1CC(OCc2ccccc2[N+](=O)[O-])C(CO)O1 (stereo not given) | inactive: 22.3 µM
C/C1=C/C(=O)O[C@@H]2C[C@@H](CC[C@H](C)/C=C\C=C\CC1)O[C@@](O)([C@@H]1CSC(=O)N1)C2 [LATRUNCULIN A] | inactive: 3.37 µM
COc1c(O)cc2ccnc3c2c1N(C)C=C3 | inactive: > 100 µM
CN(C)Cc1cc(C(=O)/C=C/c2ccc(Cl)cc2)cc(CN(C)C)c1O | inactive: 13.6 µM
CC12CC3c4ccccc4CN1C3(c1ccccc1)OC2=O (stereo not given) | inactive: > 100 µM
O=[N+]([O-])c1ccc2c(/N=N/c3ccc4ccccc4c3O)c(O)cc(S(=O)(=O)O)c2c1 | inactive: 14.8 µM
CCCCCCC(CCl)c1sc(-c2csc(CCNC(=O)OC(C)(C)C)n2)nc1C(=O)OC (stereo not given) | inactive: 30.8 µM
COc1ccc(/C=C2\C[C@H]3[C@@H]4CCC5=C/C(=N/O)CC[C@]5(C)[C@H]4CC[C@]3(C)\C2=N\O)cc1 | inactive: 10.1 µM
COc1cc(C2c3[nH]c4ccccc4c3[C@@H](Nc3ccc(C#N)cc3)[C@H]3COC(=O)N23)cc(OC)c1O (stereo not given in full) | inactive: 1.22 µM
O=C(O/N=C1/CCC/C1=C\c1ccccc1)c1ccc(Cl)c(Cl)c1 | inactive: > 100 µM
CCOC(=O)C1(C(C)=O)OC(=O)c2cnccc21 (stereo not given) | inactive: > 100 µM
Cc1c2cc[n+](COC(=O)c3ccccc3)cc2c(C)c2c1[nH]c1ccccc12 | active: 0.449 µM
COc1ccc(OC)c(CCc2cc(OC)ccc2OC)c1 | active: 0.397 µM
Cc1ccc(S(=O)(=O)N/N=C/c2oc(-c3ccccc3Cl)c(-c3ccccc3Cl)c2[N+](=O)[O-])cc1 | inactive: 62.2 µM
Cc1ccc(S(=O)(=O)NC(C)C(=O)O)cc1 (stereo not given) | inactive: > 100 µM
CS(=O)(=O)NNS(=O)(=O)c1cccc([N+](=O)[O-])c1 | inactive: > 100 µM
c1cc2c(cnc3cscc32)s1 | inactive: > 100 µM

Structure (SMILES) | GI50
Nc1c(Cl)ncnc1NCCCCCCCCCCCCNc1ncnc(Cl)c1N | inactive: 4.76 µM
CC[C@@H]1CC[C@@H]2[C@H](CC[C@]3(C)[C@@H](OS(=O)(=O)c4ccc(C)cc4)CC[C@@H]23)[C@H]1COS(=O)(=O)c1ccc(C)cc1 | inactive: > 100 µM
CC1(COS(=O)(=O)OCC2(C)COS(=O)(=O)OC2)COS(=O)(=O)OC1 | inactive: > 100 µM
O=C(CSc1nc(-c2ccccc2)c(-c2ccccc2)[nH]1)N/N=C/c1ccc([N+](=O)[O-])cc1 | inactive: 20.6 µM
COc1cc2c(c(OC)c1OC)-c1ccc(SC)c(=O)cc1[C@@H](NC(=O)c1ccc([N+](=O)[O-])cc1)CC2 | active: 0.01 µM
N#C/N=C(/NCc1ccccc1)N(Cc1ccccc1)Cc1ccccc1 | inactive: > 31.6 µM
COC12C=CC(CC1)C1C(=O)c3c(C)c(C)n(C)c3C(=O)C12 (stereo not given) | inactive: > 100 µM
COc1cc([C@@H]2c3cc4c(cc3[C@@H](NC(=O)c3cccc(C#N)c3)C3COC(=O)[C@@H]32)OCO4)cc(OC)c1O (stereo not given in full) | inactive: 8.02 µM
Cc1cccc(-c2cc(=S)c3cc(N4CCCC4)ccc3[nH]2)c1 | inactive: > 100 µM
CC1=NN(C(=O)CC(=O)Nc2ccc(C)cc2)C(=O)C1/N=N/c1ccc(C(=O)O)cc1 (stereo not given) | inactive: > 100 µM
O=C(OCc1ccccc1)OOC(=O)OCc1ccccc1 | inactive: > 100 µM
CO[C@@H](c1ccccc1)[C@H](O)[C@](O)(c1ccccc1)P(=O)(OC)OC | inactive: > 100 µM
COc1ccc2c(c1)CC[C@@H]1[C@@H]2CC[C@]2(C)[C@@H](O)/C(=C/c3ccncc3)C[C@@H]12 | inactive: 15.9 µM
C=C(C)[C@@H]1CC[C@]2(C(=O)O)CC[C@]3(C)[C@H](CC[C@@H]4[C@@]5(C)CC[C@H](C(=O)/C=C/c6ccc(O)cc6)C(C)(C)[C@@H]5CC[C@]43C)[C@@H]12 | inactive: 5.82 µM
COc1ccc(N2C(=O)c3c(c4[nH]c5ccc(OC)cc5c4c4ccc(C(C)(C)C)cc34)C2=O)cc1 | inactive: > 100 µM
CCCCCC(/C=C/[C@@H]1[C@H]2CC(=O)O[C@H]2C[C@H]1N1CCOCC1)OC1CCCO1 (stereo not given in full) | inactive: > 100 µM
COc1cc(/C=C2/C[C@H]3[C@@H]4CC=C5C[C@@H](O)CC[C@]5(C)[C@H]4CC[C@]3(C)NC2=O)cc(OC)c1OC | inactive: 12.8 µM
CC(C)(C)[Si](C)(C)OCC1OC(n2cnc3c(N)ncnc32)CC1OS(C)(=O)=O (stereo not given) | inactive: > 100 µM
COC(=O)/C(=C/c1ccc(OC)cc1)c1cc(OC)c(OC)c(OC)c1 | inactive: 4.03 µM
